Results reported in the BET-seq Pho4 binding data (Le et al. 2018).
Some of the results follow. The energies were worked out here from pooled read counts, against the library average; single values are noisy.

Target: T1, Pho4 (S. cerevisiae) (UniProt P07270)
T1 sequence: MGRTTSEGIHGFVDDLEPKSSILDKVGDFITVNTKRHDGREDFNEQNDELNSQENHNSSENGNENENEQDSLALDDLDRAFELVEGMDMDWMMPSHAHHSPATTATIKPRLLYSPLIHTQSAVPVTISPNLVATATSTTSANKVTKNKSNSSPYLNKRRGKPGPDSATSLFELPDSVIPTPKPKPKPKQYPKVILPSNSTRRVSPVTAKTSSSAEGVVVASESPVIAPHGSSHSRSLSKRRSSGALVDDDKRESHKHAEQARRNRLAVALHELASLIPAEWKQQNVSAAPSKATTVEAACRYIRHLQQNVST
Assay: relative binding free energy (BET-seq); higher = weaker binding
Conditions: reference: library average

Sequence	relative binding free energy [kcal/mol]
AGCGTCACGTGTTAGA	0.09
GGGTGCACGTGCTCGT	-0.08
CCGGTCACGTGGGGAG	-0.05
GGGTGCACGTGTTCGT	0.09
GCTGTCACGTGAAGTA	0.33
TTAGTCACGTGGCCGT	0.2
AGTATCACGTGTATAT	0.18
AGTATCACGTGGACGT	0.27
TATCGCACGTGTGATT	0.1
GGTTTCACGTGCAGAG	0.39
TATAGCACGTGGGACG	-0.19
GAATACACGTGGGGTG	-0.07
GATCTCACGTGGGGGA	0.21
TTCGACACGTGAGGAT	0.28
CGTAGCACGTGGAAGG	-0.04
AGAGGCACGTGTGTTT	-0.02
ATATTCACGTGAATTT	0.4
AGTAGCACGTGACGGT	0.01
TATAGCACGTGTTTGC	-0.24
TGGGGCACGTGCGATG	-0.13
CTTTTCACGTGAGCGT	0.17
TGTGACACGTGAGGAA	0.26
GTTAGCACGTGAGATT	0.31

Sequence	relative binding free energy [kcal/mol]
TAGGCCACGTGATTTT	0.12
GTATTCACGTGGATAA	0.31
CGTTTCACGTGAGGGT	0.28
TTAAGCACGTGGGGTA	-0.17
GACGGCACGTGGAGTT	0.07
TCAGACACGTGTAGTG	0.03
TGGCGCACGTGTGCGT	-0.1
GGCGCCACGTGGGTAG	-0.09
TTTGGCACGTGGGCTA	-0.16
GTTGTCACGTGGTGCG	0.11
ATTGACACGTGGTTGA	-0.02
CGGTGCACGTGGAATG	-0.02
GTCTGCACGTGCCGGG	0
TGTTACACGTGTTGAG	0.27
TGGGGCACGTGATAGG	0.04
ATACTCACGTGGTAGG	0.05
TCTTGCACGTGGTGGG	0
GGGCACACGTGGGTCT	-0.12
TTTAGCACGTGTGACG	-0.12
GTAGACACGTGAGATA	0.4
AGAGGCACGTGGGCAA	-0.26
AGGTCCACGTGGGTAT	-0.11
GCTTTCACGTGTAGGA	0.15

Sequence	relative binding free energy [kcal/mol]
ACTTTCACGTGTGGGT	0.31
TTTGACACGTGGGGAC	-0.01
TTTCCCACGTGGTGTT	-0.03
GGCGGCACGTGAGGTG	0.17
TAGGACACGTGGTGTA	-0.13
AGGTTCACGTGCGGTC	0.45
TCCTTCACGTGGTAGG	0.27
GTGCTCACGTGCTTGG	0.19
CATGGCACGTGGTGAT	-0.29
TGAAACACGTGTAGGT	0.02
CGAGGCACGTGATGGA	0.13
ACGAGCACGTGGGTGG	-0.22
CTTTCCACGTGTTTTA	0.07
CGGGGCACGTGGACTG	-0.17
AAAAGCACGTGGTTTA	-0.03
TTGTTCACGTGTCTTC	0.17
CATTACACGTGAAGGT	0.32
AGAGTCACGTGAGGGA	0.23
TTTCACACGTGGGGCG	-0.17
ATAAACACGTGATGTG	0.08
AGGTACACGTGTTCGT	0.03
TGGGTCACGTGCATAA	0.07
TGTCTCACGTGGTCGG	0.18

Sequence	relative binding free energy [kcal/mol]
CTGTGCACGTGGGGGA	-0.3
CATAGCACGTGGGGGT	-0.26
ACTTGCACGTGAGGTG	0.13
TATGGCACGTGAGGGC	0.02
CGTGACACGTGTGATT	0.14
GCTTGCACGTGTGGGG	0.11
ATTATCACGTGTATGC	0.14
TTGGACACGTGGTAGG	0.08
TTGTGCACGTGAGGAT	0.15
GTTAACACGTGAGAAG	0.32
AGCTTCACGTGGGGAT	0.1
GTTAGCACGTGGGTGA	-0.15
AGTGGCACGTGACCGG	-0.14
TAGAGCACGTGGGAGA	-0.11
TAAGTCACGTGGCCGG	0.09
TTGACCACGTGGGTGT	-0.12
GATCACACGTGAGGGG	0.33
TATAACACGTGAGGGT	0.28
GATTTCACGTGTAAGG	0.39
TCCTGCACGTGTGTGT	0.02
GGGAGCACGTGTTCTG	-0.18
GTGATCACGTGAGGAT	0.33
ATTTACACGTGGGATT	0.03

Sequence	relative binding free energy [kcal/mol]
GGGGGCACGTGTTATA	-0.05
GGTTGCACGTGACAGG	0.16
TATTACACGTGGTTTC	0.13
GTAGACACGTGTTAAA	0.16
TAGTACACGTGAAGTT	0.32
TTGAGCACGTGTTGCG	-0.16
TAGTTCACGTGCGTCT	0.25
GCGGGCACGTGGTTCG	-0.21
TTTTACACGTGAGACT	0.16
CGAGGCACGTGGTTAA	0.05
ATCGTCACGTGGGTTA	0
TGGCTCACGTGGTGTA	0.07
TTTGTCACGTGATATT	0.28
GGCTTCACGTGATTGT	0.35
ATTTACACGTGACGTT	0.35
GTGATCACGTGGGCGT	-0.01
AGGGGCACGTGGTCAT	-0.24
TGGAGCACGTGGGTCT	-0.15
GTTGGCACGTGTAGTG	0.02
AGTCTCACGTGTTGAT	0.26
ACGTGCACGTGTGATT	-0.06
GTCAGCACGTGGTTTG	-0.07
CGTGGCACGTGCGGAA	-0.1
